The labels stand for the following.
B1: Q9UKT9 (peptide)
chain: FGCEICGHTFTQKGNLLRHIKL
B2: Q9UKT9 (peptide)
chain: FQCSVCGHTFTQKGNLLRHIKL
B3: Q9UKT9 (peptide)
chain: FICEQCGAPFTQKGNLLRHIKL
B4: Q9UKT9 (peptide)
chain: FECPICGAEFTQKGNLLRHIKL
B5: Q9UKT9 (peptide)
chain: FQCPICGAIFTQKGNLLRHIKL
B6: Q9UKT9 (peptide)
chain: FYCDVCGAQFTQKGNLLRHIKL
B7: Q9UKT9 (peptide)
chain: FECPQCGAFFTQKGNLLRHIKL
B8: Q9UKT9 (peptide)
chain: FGCPQCGAYFTQKGNLLRHIKL
B9: Q9UKT9 (peptide)
chain: LECEICGFQCTQKGNLLRHIKL
B10: Q9UKT9 (peptide)
chain: FYCDICGAVFTQKGNLLRHIKL
B11: Q9UKT9 (peptide)
chain: FVCPVCGAHFTQKGNLLRHIKL
B12: Q9UKT9 (peptide)
chain: LLCPICGFNCTQKGNLLRHIKL
B13: Q9UKT9 (peptide)
chain: FCCEICGHTFTQKGNLLRHIKL
B14: Q9UKT9 (peptide)
chain: FSCPICGAYFTQKGNLLRHIKL

Some of the results follow.
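Also: jurkat cells carrying a lentiviral library of mutant zinc finger degrons fused to EGFP plus mCherry, mCherry+ cells FACS sorted, degron abundance counted by next-generation sequencing.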

For the assay, the target named is no compound (DMSO). The assay can be described thus: log2 fold change of degron read counts, EGFP-low vs EGFP+ sorted cells; higher = lower degron-EGFP level without compound (poor expression or instability). The note with it: compound: DMSO control; 18 h.
On to B1, for which the “log2 fold change of degron read counts” value was -1.14.
The result for B2 reads -0.899.
The result for B3 reads -1.48; that for B4, -0.648; that for B5, 0.185.
The figure for B6 is -1.3.
With B7, the “log2 fold change of degron read counts” value was -0.793.
The figure for B8 is 0.287; for B9 it is -1.35; for B10 it is -0.494.
The figure for B11 is -0.096; for B12 it is 1.3.
The figure for B13 is -2.08.
In the case of B14, the “log2 fold change of degron read counts” value was found to be 0.728.
